# This is one part of the list.
# B1: HBHA-Rv (Mycobacterium tuberculosum), P0A5P6 (protein)
# chain: MAENSNIDDIKAPLLAALGAADLALATVNELITNLRERAEETRTDTRSRVEESRARLTKLQEDLPEQLTELREKFTAEELRKAAEGYLEAATSRYNELVERGEAALERLRSQQSFEEVSARAEGYVDQAVELTQEALGTVASQTRAVGERAAKLVGIELPKKAAPAKKAAPAKKAAPAKKAAAKKAPAKKAAAKKVTQK
# How the values were obtained:
# Assay in all cases: glycan array binding signal (z-score within array); higher = stronger binding
# Settings in all cases: glycan notation: IUPAC condensed, linker removed
# Gal(a1-3)Gal(b1-4)GlcNAc = target: Gal(a1-3)Gal(b1-4)GlcNAc
# In short: (§1)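 Arrays were curated from the Consortium for Functional Glycomics database, 3228 in total, and kept only where the protein sequence was available. Binding is expressed as a within-array Z-score. This score was averaged across arrays of the same protein sequence at different concentrations or buffers and across linkers, and negative values can be read as non-binding.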
# [1] = target: Gal(a1-3)Gal(b1-4)GlcNAc(b1-2)Man
# In short: as §1
# [2] = target: Gal(a1-3)Gal(b1-4)GlcNAc(b1-2)Man(a1-3)[Gal(a1-3)Gal(b1-4)GlcNAc(b1-2)Man(a1-6)]Man(b1-4)GlcNAc(b1-4)GlcNAc
# In short: as §1
# [3] = target: Gal(a1-3)Gal(b1-4)GlcNAc(b1-3)GalNAc
# In short: as §1
# [4] = target: Gal(a1-3)Gal(b1-4)GlcNAc(b1-6)GalNAc
# In short: as §1
# [5] = target: Gal(a1-3)Gal(b1-4)[Fuc(a1-3)]GlcNAc
# In short: as §1
# [6] = target: Gal(a1-3)Gal(b1-4)[Fuc(a1-3)]GlcNAc(b1-2)Man(a1-3)[Gal(a1-3)Gal(b1-4)[Fuc(a1-3)]GlcNAc(b1-2)Man(a1-6)]Man(b1-4)GlcNAc(b1-4)GlcNAc
# In short: as §1
# Gal(a1-3)GalNAc = target: Gal(a1-3)GalNAc
# In short: as §1
# [7] = target: Gal(a1-3)[Gal(a1-4)]Gal(b1-4)GlcNAc
# In short: as §1
# [8] = target: Gal(a1-4)Gal(b1-3)GlcNAc(b1-2)Man(a1-3)[Gal(a1-4)Gal(b1-3)GlcNAc(b1-2)Man(a1-6)]Man(b1-4)GlcNAc(b1-4)GlcNAc
# In short: as §1
# Gal(a1-4)Gal(b1-4)Glc = target: Gal(a1-4)Gal(b1-4)Glc
# In short: as §1
# Gal(a1-4)Gal(b1-4)GlcNAc = target: Gal(a1-4)Gal(b1-4)GlcNAc
# In short: as §1
# [9] = target: Gal(a1-4)Gal(b1-4)GlcNAc(b1-2)Man(a1-3)[Gal(a1-4)Gal(b1-4)GlcNAc(b1-2)Man(a1-6)]Man(b1-4)GlcNAc(b1-4)GlcNAc
# In short: as §1
# [10] = target: Gal(a1-4)Gal(b1-4)GlcNAc(b1-3)Gal(b1-4)Glc
# In short: as §1
# Gal(a1-4)GlcNAc = target: Gal(a1-4)GlcNAc
# In short: as §1
# Gal(a1-6)Glc = target: Gal(a1-6)Glc
# In short: as §1
# Gal(b1-2)Gal = target: Gal(b1-2)Gal
# In short: as §1
# Gal(b1-3)Gal = target: Gal(b1-3)Gal
# In short: as §1
# Gal(b1-3)Gal(b1-4)GlcNAc = target: Gal(b1-3)Gal(b1-4)GlcNAc
# In short: as §1
# Gal(b1-3)GalNAc = target: Gal(b1-3)GalNAc
# In short: as §1
# [11] = target: Gal(b1-3)GalNAc(a1-3)[Fuc(a1-2)]Gal(b1-4)Glc
# In short: as §1
# [12] = target: Gal(b1-3)GalNAc(a1-3)[Fuc(a1-2)]Gal(b1-4)GlcNAc
# In short: as §1
# Gal(b1-3)GalNAc(b1-3)Gal = target: Gal(b1-3)GalNAc(b1-3)Gal
# In short: as §1
# [13] = target: Gal(b1-3)GalNAc(b1-3)Gal(a1-4)Gal(b1-4)Glc
# In short: as §1
# [14] = target: Gal(b1-3)GalNAc(b1-4)Gal(b1-4)Glc
# In short: as §1
# [15] = target: Gal(b1-3)GalNAc(b1-4)[Neu5Ac(a2-3)]Gal(b1-4)Glc
# In short: as §1
# Gal(b1-3)GlcNAc = target: Gal(b1-3)GlcNAc
# In short: as §1
# [16] = target: Gal(b1-3)GlcNAc(a1-3)Gal(b1-4)GlcNAc
# In short: as §1
# [17] = target: Gal(b1-3)GlcNAc(a1-6)Gal(b1-4)GlcNAc
# In short: as §1
# Gal(b1-3)GlcNAc(b1-2)Man = target: Gal(b1-3)GlcNAc(b1-2)Man
# In short: as §1
# [18] = target: Gal(b1-3)GlcNAc(b1-2)Man(a1-3)[Gal(b1-3)GlcNAc(b1-2)Man(a1-6)]Man(b1-4)GlcNAc(b1-4)GlcNAc
# In short: as §1
# [19] = target: Gal(b1-3)GlcNAc(b1-2)Man(a1-3)[Gal(b1-3)GlcNAc(b1-2)Man(a1-6)]Man(b1-4)GlcNAc(b1-4)[Fuc(a1-6)]GlcNAc
# In short: as §1
# [20] = target: Gal(b1-3)GlcNAc(b1-2)Man(a1-3)[GlcNAc(b1-4)][Gal(b1-3)GlcNAc(b1-2)Man(a1-6)]Man(b1-4)GlcNAc(b1-4)GlcNAc
# In short: as §1
# [21] = target: Gal(b1-3)GlcNAc(b1-2)[Gal(b1-3)GlcNAc(b1-6)]Man(a1-6)[Gal(b1-3)GlcNAc(b1-2)Man(a1-3)]Man(b1-4)GlcNAc(b1-4)GlcNAc
# In short: as §1
# [22] = target: Gal(b1-3)GlcNAc(b1-3)Gal(b1-3)GlcNAc
# In short: as §1
# [23] = target: Gal(b1-3)GlcNAc(b1-3)Gal(b1-4)Glc
# In short: as §1
# [24] = target: Gal(b1-3)GlcNAc(b1-3)Gal(b1-4)GlcNAc
# In short: as §1
# [25] = target: Gal(b1-3)GlcNAc(b1-3)Gal(b1-4)GlcNAc(b1-2)Man(a1-3)[Gal(b1-3)GlcNAc(b1-3)Gal(b1-4)GlcNAc(b1-2)Man(a1-6)]Man(b1-4)GlcNAc(b1-4)GlcNAc
# In short: as §1
# [26] = target: Gal(b1-3)GlcNAc(b1-3)Gal(b1-4)GlcNAc(b1-2)[Gal(b1-3)GlcNAc(b1-3)Gal(b1-4)GlcNAc(b1-6)]Man(a1-6)[Gal(b1-3)GlcNAc(b1-3)Gal(b1-4)GlcNAc(b1-2)Man(a1-3)]Man(b1-4)GlcNAc(b1-4)[Fuc(a1-6)]GlcNAc
# In short: as §1
# [27] = target: Gal(b1-3)GlcNAc(b1-3)Gal(b1-4)GlcNAc(b1-3)Gal(b1-4)GlcNAc(b1-2)[Gal(b1-3)GlcNAc(b1-3)Gal(b1-4)GlcNAc(b1-3)Gal(b1-4)GlcNAc(b1-6)]Man(a1-6)[Gal(b1-3)GlcNAc(b1-3)Gal(b1-4)GlcNAc(b1-3)Gal(b1-4)GlcNAc(b1-2)Man(a1-3)]Man(b1-4)GlcNAc(b1-4)[Fuc(a1-6)]GlcNAc
# In short: as §1
# [28] = target: Gal(b1-3)GlcNAc(b1-3)Gal(b1-4)GlcNAc(b1-6)[Gal(b1-3)GlcNAc(b1-3)]Gal(b1-4)Glc
# In short: as §1
# [29] = target: Gal(b1-3)GlcNAc(b1-3)Gal(b1-4)[Fuc(a1-3)]GlcNAc
# In short: as §1
# [30] = target: Gal(b1-3)GlcNAc(b1-3)Gal(b1-4)[Fuc(a1-3)]GlcNAc(b1-6)[Gal(b1-3)GlcNAc(b1-3)]Gal(b1-4)Glc
# In short: as §1
# [31] = target: Gal(b1-3)GlcNAc(b1-3)GalNAc
# In short: as §1
# [32] = target: Gal(b1-3)GlcNAc(b1-6)Gal(b1-4)GlcNAc
# In short: as §1
binder,measurement,setting,value
B1,glycan array binding signal (z-score),Gal(a1-3)Gal(b1-4)GlcNAc,0.425
same,glycan array binding signal (z-score),[1],-0.324
same,glycan array binding signal (z-score),[2],-0.371
same,glycan array binding signal (z-score),[3],-0.31
same,glycan array binding signal (z-score),[4],0.154
same,glycan array binding signal (z-score),[5],0.246
same,glycan array binding signal (z-score),[6],-0.435
same,glycan array binding signal (z-score),Gal(a1-3)GalNAc,-0.259
same,glycan array binding signal (z-score),[7],0.684
same,glycan array binding signal (z-score),[8],-0.281
same,glycan array binding signal (z-score),Gal(a1-4)Gal(b1-4)Glc,-0.228
same,glycan array binding signal (z-score),Gal(a1-4)Gal(b1-4)GlcNAc,-0.136
same,glycan array binding signal (z-score),[9],-0.438
same,glycan array binding signal (z-score),[10],-0.423
same,glycan array binding signal (z-score),Gal(a1-4)GlcNAc,0.363
same,glycan array binding signal (z-score),Gal(a1-6)Glc,-0.054
same,glycan array binding signal (z-score),Gal(b1-2)Gal,0.815
same,glycan array binding signal (z-score),Gal(b1-3)Gal,-0.264
same,glycan array binding signal (z-score),Gal(b1-3)Gal(b1-4)GlcNAc,-0.171
same,glycan array binding signal (z-score),Gal(b1-3)GalNAc,0.238
same,glycan array binding signal (z-score),[11],-0.329
same,glycan array binding signal (z-score),[12],-0.374
same,glycan array binding signal (z-score),Gal(b1-3)GalNAc(b1-3)Gal,-0.345
same,glycan array binding signal (z-score),[13],-0.254
same,glycan array binding signal (z-score),[14],-0.315
same,glycan array binding signal (z-score),[15],-0.003
same,glycan array binding signal (z-score),Gal(b1-3)GlcNAc,0.305
same,glycan array binding signal (z-score),[16],-0.406
same,glycan array binding signal (z-score),[17],-0.293
same,glycan array binding signal (z-score),Gal(b1-3)GlcNAc(b1-2)Man,0.373
same,glycan array binding signal (z-score),[18],-0.443
same,glycan array binding signal (z-score),[19],-0.463
same,glycan array binding signal (z-score),[20],0.595
same,glycan array binding signal (z-score),[21],-0.355
same,glycan array binding signal (z-score),[22],-0.381
same,glycan array binding signal (z-score),[23],-0.226
same,glycan array binding signal (z-score),[24],-0.366
same,glycan array binding signal (z-score),[25],-0.396
same,glycan array binding signal (z-score),[26],-0.072
same,glycan array binding signal (z-score),[27],-0.414
same,glycan array binding signal (z-score),[28],-0.472
same,glycan array binding signal (z-score),[29],-0.198
same,glycan array binding signal (z-score),[30],-0.453
same,glycan array binding signal (z-score),[31],0.212
same,glycan array binding signal (z-score),[32],-0.392

# — the supplement of paper PMC8728848
